# From the supplement of paper PMC8728848
# This is one part of the list.
# Experiments:
# Assay in all cases: glycan array binding signal (z-score within array); higher = stronger binding
# Settings in all cases: glycan notation: IUPAC condensed, linker removed
# Fuc(a1-2)Gal = target: Fuc(a1-2)Gal
# In short: (§1)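 Glycan array data were curated from 3228 arrays in the Consortium for Functional Glycomics database and kept only where the protein sequence was available. Glycan names were converted to IUPAC-condensed notation, and columns mapping to the same glycan were averaged. The binding signal is a within-array Z-score, averaged across arrays of the same protein sequence at different concentrations or buffers and across linkers. Negative Z-scores can be read as non-binding.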
# Fuc(a1-2)Gal(b1-3)GalNAc = target: Fuc(a1-2)Gal(b1-3)GalNAc
# In short: as §1
# [1] = target: Fuc(a1-2)Gal(b1-3)GalNAc(a1-3)[Fuc(a1-2)]Gal(b1-4)Glc
# In short: as §1
# [2] = target: Fuc(a1-2)Gal(b1-3)GalNAc(a1-3)[Fuc(a1-2)]Gal(b1-4)GlcNAc
# In short: as §1
# [3] = target: Fuc(a1-2)Gal(b1-3)GalNAc(b1-3)Gal
# In short: as §1
# [4] = target: Fuc(a1-2)Gal(b1-3)GalNAc(b1-3)Gal(a1-4)Gal(b1-4)Glc
# In short: as §1
# [5] = target: Fuc(a1-2)Gal(b1-3)GalNAc(b1-4)[Neu5Ac(a2-3)]Gal(b1-4)Glc
# In short: as §1
# Fuc(a1-2)Gal(b1-3)GlcNAc = target: Fuc(a1-2)Gal(b1-3)GlcNAc
# In short: as §1
# [6] = target: Fuc(a1-2)Gal(b1-3)GlcNAc(b1-2)Man(a1-3)[Fuc(a1-2)Gal(b1-3)GlcNAc(b1-2)Man(a1-6)]Man(b1-4)GlcNAc(b1-4)GlcNAc
# In short: as §1
# [7] = target: Fuc(a1-2)Gal(b1-3)GlcNAc(b1-2)Man(a1-3)[Fuc(a1-2)Gal(b1-3)GlcNAc(b1-2)Man(a1-6)]Man(b1-4)GlcNAc(b1-4)[Fuc(a1-6)]GlcNAc
# In short: as §1
# [8] = target: Fuc(a1-2)Gal(b1-3)GlcNAc(b1-3)Gal(b1-4)Glc
# In short: as §1
# [9] = target: Fuc(a1-2)Gal(b1-3)GlcNAc(b1-3)GalNAc
# In short: as §1
# [10] = target: Fuc(a1-2)Gal(b1-3)GlcNAc(b1-3)[Fuc(a1-2)Gal(b1-3)GlcNAc(b1-6)]GalNAc
# In short: as §1
# [11] = target: Fuc(a1-2)Gal(b1-3)GlcNAc(b1-3)[Gal(b1-4)GlcNAc(b1-6)]Gal(b1-4)Glc
# In short: as §1
# [12] = target: Fuc(a1-2)Gal(b1-3)GlcNAc(b1-3)[Neu5Ac(a2-6)Gal(b1-4)GlcNAc(b1-6)]Gal(b1-4)Glc
# In short: as §1
# [13] = target: Fuc(a1-2)Gal(b1-3)GlcNAc6S
# In short: as §1
# [14] = target: Fuc(a1-2)Gal(b1-3)[Fuc(a1-4)]GlcNAc
# In short: as §1
# [15] = target: Fuc(a1-2)Gal(b1-3)[Fuc(a1-4)]GlcNAc(b1-2)Man(a1-3)[Fuc(a1-2)Gal(b1-3)[Fuc(a1-4)]GlcNAc(b1-2)Man(a1-3)]Man(b1-4)GlcNAc(b1-4)GlcNAc
# In short: as §1
# [16] = target: Fuc(a1-2)Gal(b1-3)[Fuc(a1-4)]GlcNAc(b1-2)Man(a1-3)[Fuc(a1-2)Gal(b1-3)[Fuc(a1-4)]GlcNAc(b1-2)Man(a1-6)]Man(b1-4)GlcNAc(b1-4)[Fuc(a1-6)]GlcNAc(b1-4)[Fuc(a1-6)]GlcNAc
# In short: as §1
# [17] = target: Fuc(a1-2)Gal(b1-3)[Fuc(a1-4)]GlcNAc(b1-3)[Fuc(a1-3)[Gal(b1-4)]GlcNAc(b1-6)]Gal(b1-4)Glc
# In short: as §1
# [18] = target: Fuc(a1-2)Gal(b1-3)[Fuc(a1-4)]GlcNAc(b1-3)[Gal(b1-4)GlcNAc(b1-6)]Gal(b1-4)Glc
# In short: as §1
# Fuc(a1-2)Gal(b1-4)Glc = target: Fuc(a1-2)Gal(b1-4)Glc
# In short: as §1
# Fuc(a1-2)Gal(b1-4)Glc6S = target: Fuc(a1-2)Gal(b1-4)Glc6S
# In short: as §1
# Fuc(a1-2)Gal(b1-4)GlcNAc = target: Fuc(a1-2)Gal(b1-4)GlcNAc
# In short: as §1
# [19] = target: Fuc(a1-2)Gal(b1-4)GlcNAc(b1-2)Man
# In short: as §1
# [20] = target: Fuc(a1-2)Gal(b1-4)GlcNAc(b1-2)Man(a1-3)[Fuc(a1-2)Gal(b1-4)GlcNAc(b1-2)Man(a1-6)]Man(b1-4)GlcNAc(b1-4)GlcNAc
# In short: as §1
# [21] = target: Fuc(a1-2)Gal(b1-4)GlcNAc(b1-2)Man(a1-3)[Fuc(a1-2)Gal(b1-4)GlcNAc(b1-2)Man(a1-6)]Man(b1-4)GlcNAc(b1-4)[Fuc(a1-6)]GlcNAc
# In short: as §1
# [22] = target: Fuc(a1-2)Gal(b1-4)GlcNAc(b1-2)[Fuc(a1-2)Gal(b1-4)GlcNAc(b1-4)]Man(a1-3)[Fuc(a1-2)Gal(b1-4)GlcNAc(b1-2)Man(a1-6)]Man(b1-4)GlcNAc(b1-4)GlcNAc
# In short: as §1
# [23] = target: Fuc(a1-2)Gal(b1-4)GlcNAc(b1-3)Gal(b1-4)GlcNAc
# In short: as §1
# [24] = target: Fuc(a1-2)Gal(b1-4)GlcNAc(b1-3)Gal(b1-4)GlcNAc(b1-2)Man(a1-3)[Fuc(a1-2)Gal(b1-4)GlcNAc(b1-3)Gal(b1-4)GlcNAc(b1-2)Man(a1-6)]Man(b1-4)GlcNAc(b1-4)GlcNAc
# In short: as §1
binder,measurement,setting,value
PNGase F (Flavobacterium meningosepticum) (protein) GIPAPADNTVNIKTFDKVKNAFGDGLSQSAEGTFTFPADVTAVKTIKMFIKNECPNKTCDEWDRYANVYVKNKTTGEWYEIGRFITPYWVGTEKLPRGLEIDVTDFKSLLSGNTELKIYTETWLAKGREYSVDFDIVYGTPDYKYSAVVPVVQYNKSSIDGVPYGKAHTLALKKNIQLPTNTEKAYLRTTISGWGHAKPYDAGSRGCAEWCFRTHTIAINNSNTFQHQLGALGCSANPINNQSPGNWTPDRAGWCPGMAVPTRIDVLNNSLIGSTFSYEYKFQNWTNNGTNGDAFYAISSFVIAKSNTPISAPVVTNLDPHHHHHH,glycan array binding signal (z-score),Fuc(a1-2)Gal,0.042
same,glycan array binding signal (z-score),Fuc(a1-2)Gal(b1-3)GalNAc,-0.232
same,glycan array binding signal (z-score),[1],-0.255
same,glycan array binding signal (z-score),[2],-0.194
same,glycan array binding signal (z-score),[3],1.61
same,glycan array binding signal (z-score),[4],-0.124
same,glycan array binding signal (z-score),[5],-0.266
same,glycan array binding signal (z-score),Fuc(a1-2)Gal(b1-3)GlcNAc,-0.147
same,glycan array binding signal (z-score),[6],0.18
same,glycan array binding signal (z-score),[7],-0.023
same,glycan array binding signal (z-score),[8],-0.232
same,glycan array binding signal (z-score),[9],-0.098
same,glycan array binding signal (z-score),[10],0.162
same,glycan array binding signal (z-score),[11],-0.346
same,glycan array binding signal (z-score),[12],-0.183
same,glycan array binding signal (z-score),[13],-0.123
same,glycan array binding signal (z-score),[14],-0.192
same,glycan array binding signal (z-score),[15],0.438
same,glycan array binding signal (z-score),[16],-0.102
same,glycan array binding signal (z-score),[17],-0.347
same,glycan array binding signal (z-score),[18],-0.246
same,glycan array binding signal (z-score),Fuc(a1-2)Gal(b1-4)Glc,0.092
same,glycan array binding signal (z-score),Fuc(a1-2)Gal(b1-4)Glc6S,0.271
same,glycan array binding signal (z-score),Fuc(a1-2)Gal(b1-4)GlcNAc,-0.196
same,glycan array binding signal (z-score),[19],0.429
same,glycan array binding signal (z-score),[20],-0.299
same,glycan array binding signal (z-score),[21],-0.088
same,glycan array binding signal (z-score),[22],-0.019
same,glycan array binding signal (z-score),[23],-0.311
same,glycan array binding signal (z-score),[24],-0.235
